According to the supplement of paper PMC4967469:
A lower IC50 marks a more sensitive line; a limit (>, <) means that the fit lies beyond the doses tested. AUC sums up the same curve from the lowest dose to the 256-fold higher top dose; values near 1 show little effect. The top dose, if marked as inferred, was derived from the fitted curves, not read from the paper.

compound: CC1=C(C(=O)Nc2cc3cn[nH]c3cc2F)C(c2ccc(C(F)(F)F)cc2)CC(=O)N1 [GSK429286A]; assay: Viability of human cancer cell lines after 72 h of drug (GDSC screen); settings: top dose inferred
Procedure: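 Human cancer cell lines in 384-well plates, medium with 10% serum, drug for 72 h over a 256-fold dose range (nine 2-fold or five 4-fold steps up to the top dose). Adherent lines were fixed and stained with the nucleic acid dye Syto60, suspension lines read with resazurin; signal relative to control wells, capped at 0 and 100%. One two-parameter sigmoid per drug and line, fitted in a mixed model over all curves with the slope shared within a line.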

| Cell Line | AUC | IC50 [µM] |
| --- | --- | --- |
| PA-1 (ovary, adherent, top dose 20 µM) | 0.91 | 17.3 |
| TE-15 (oesophagus, suspension, top dose 20 µM) | 0.975 | > 20 |
| MIA-PaCa-2 (pancreas, adherent, top dose 20 µM) | 0.979 | > 20 |
| HO-1-N-1 (head and neck, adherent, top dose 20 µM) | 0.986 | > 20 |
| RCC-ER (kidney, adherent, top dose 20 µM) | 0.983 | > 20 |
| L-363 (myeloma, suspension, top dose 20 µM) | 0.945 | > 20 |
| LB1047-RCC (kidney, adherent, top dose 20 µM) | 0.976 | > 20 |
| OSC-20 (head and neck, adherent, top dose 20 µM) | 0.965 | > 20 |
| JHU-011 (head and neck, adherent, top dose 20 µM) | 0.981 | > 20 |
| H2373 (mesothelioma, adherent, top dose 20 µM) | 0.966 | > 20 |
| UM-UC-3 (bladder, adherent, top dose 20 µM) | 0.953 | > 20 |
| SUIT-2 (pancreas, adherent, top dose 20 µM) | 0.887 | > 20 |
| SW1710 (bladder, adherent, top dose 20 µM) | 0.28 | 0.292 |
| RC-K8 (B-cell lymphoma, suspension, top dose 20 µM) | 0.985 | > 20 |
| MC-CAR (haematopoietic neoplasm, suspension, top dose 20 µM) | 0.963 | > 20 |
| DU-4475 (breast, suspension, top dose 20 µM) | 0.923 | > 20 |
| IHH-4 (thyroid, semi-adherent, top dose 20 µM) | 0.993 | > 20 |
| HCC2218 (breast, suspension, top dose 20 µM) | 0.968 | > 20 |
| COLO-829 (melanoma, adherent, top dose 20 µM) | 0.949 | > 20 |
| NCI-H1304 (small cell lung carcinoma, suspension, top dose 20 µM) | 0.946 | > 20 |
| CAL-27 (head and neck, adherent, top dose 20 µM) | 0.964 | > 20 |

| Cell Line | AUC | IC50 [µM] |
| --- | --- | --- |
| PL18 (pancreas, adherent, top dose 20 µM) | 0.986 | > 20 |
| HO-1-u-1 (head and neck, adherent, top dose 20 µM) | 0.982 | > 20 |
| HSC-4 (head and neck, adherent, top dose 20 µM) | 0.972 | > 20 |
| Ramos-2G6-4C10 (Burkitt lymphoma, suspension, top dose 20 µM) | 0.883 | 16 |
| ChaGo-K-1 (non-small cell lung carcinoma, adherent, top dose 20 µM) | 0.961 | > 20 |
| HCC1599 (breast, suspension, top dose 20 µM) | 0.958 | > 20 |
| MCF7 (breast, adherent, top dose 20 µM) | 0.986 | > 20 |
| SW1573 (lung adenocarcinoma, adherent, top dose 20 µM) | 0.98 | > 20 |
| CAL-85-1 (breast, adherent, top dose 20 µM) | 0.963 | > 20 |
| SAT (head and neck, adherent, top dose 20 µM) | 0.968 | > 20 |
| SW13 (adrenal gland, adherent, top dose 20 µM) | 0.988 | > 20 |
| H513 (mesothelioma, semi-adherent, top dose 20 µM) | 0.974 | > 20 |
| T98G (glioma, adherent, top dose 20 µM) | 0.98 | > 20 |
| H2795 (mesothelioma, adherent, top dose 20 µM) | 0.95 | > 20 |
| NCI-H1781 (lung adenocarcinoma, adherent, top dose 20 µM) | 0.985 | > 20 |
| YAPC (pancreas, adherent, top dose 20 µM) | 0.975 | > 20 |
| KG-1 (acute myeloid leukaemia, suspension, top dose 20 µM) | 0.957 | > 20 |
| D-542MG (glioma, adherent, top dose 20 µM) | 0.978 | > 20 |
| CAL-33 (head and neck, adherent, top dose 20 µM) | 0.947 | > 20 |
| H9 (lymphoid neoplasm, suspension, top dose 20 µM) | 0.988 | > 20 |
| SW954 (urogenital system, adherent, top dose 20 µM) | 0.941 | > 20 |

| Cell Line | AUC | IC50 [µM] |
| --- | --- | --- |
| THP-1 (acute myeloid leukaemia, suspension, top dose 20 µM) | 0.95 | > 20 |
| AN3-CA (endometrium, adherent, top dose 20 µM) | 0.965 | > 20 |
| HEC-1 (endometrium, adherent, top dose 20 µM) | 0.989 | > 20 |
| KASUMI-1 (acute myeloid leukaemia, suspension, top dose 20 µM) | 0.499 | 1.24 |
| BB65-RCC (kidney, adherent, top dose 20 µM) | 0.983 | > 20 |
| PANC-08-13 (pancreas, adherent, top dose 20 µM) | 0.983 | > 20 |
| P12-ICHIKAWA (T-cell lymphoblastic leukaemia, suspension, top dose 20 µM) | 0.922 | 18.9 |
| NCI-H2081 (small cell lung carcinoma, suspension, top dose 20 µM) | 0.875 | > 20 |
| NB7 (neuroblastoma, adherent, top dose 20 µM) | 0.977 | > 20 |
| MHH-ES-1 (Ewing sarcoma, adherent, top dose 20 µM) | 0.952 | > 20 |
| RT4 (bladder, adherent, top dose 20 µM) | 0.987 | > 20 |
| HAL-01 (lymphoblastic leukaemia, suspension, top dose 20 µM) | 0.956 | > 20 |
| OE21 (oesophagus, adherent, top dose 20 µM) | 0.973 | > 20 |
| SNU-407 (large intestine, adherent, top dose 20 µM) | 0.956 | > 20 |
| FLO-1 (oesophagus, adherent, top dose 20 µM) | 0.934 | > 20 |
| NCI-H211 (small cell lung carcinoma, adherent, top dose 20 µM) | 0.95 | > 20 |
| COR-L279 (small cell lung carcinoma, suspension, top dose 20 µM) | 0.944 | > 20 |
| LXF-289 (lung adenocarcinoma, adherent, top dose 20 µM) | 0.918 | > 20 |
| BICR31 (head and neck, adherent, top dose 20 µM) | 0.988 | > 20 |
| NCI-H1436 (small cell lung carcinoma, suspension, top dose 20 µM) | 0.952 | > 20 |
| U-698-M (B-cell leukaemia, suspension, top dose 20 µM) | 0.987 | > 20 |

| Cell Line | AUC | IC50 [µM] |
| --- | --- | --- |
| COLO-792 (melanoma, adherent, top dose 20 µM) | 0.972 | > 20 |
| RCC-FG2 (kidney, adherent, top dose 20 µM) | 0.977 | > 20 |
| NCI-H2030 (lung adenocarcinoma, adherent, top dose 20 µM) | 0.97 | > 20 |
| CA46 (Burkitt lymphoma, suspension, top dose 20 µM) | 0.925 | > 20 |
| KY821 (leukaemia, suspension, top dose 20 µM) | 0.976 | > 20 |
| COLO-783 (melanoma, adherent, top dose 20 µM) | 0.991 | > 20 |
| Hs746T (stomach, adherent, top dose 20 µM) | 0.905 | > 20 |
| COR-L88 (small cell lung carcinoma, adherent, top dose 20 µM) | 0.964 | > 20 |
| M059J (glioma, adherent, top dose 20 µM) | 0.941 | > 20 |
| 639-V (bladder, adherent, top dose 20 µM) | 0.987 | > 20 |
| OV-90 (ovary, adherent, top dose 20 µM) | 0.968 | > 20 |
| SK-N-SH (neuroblastoma, adherent, top dose 20 µM) | 0.943 | > 20 |
| SW872 (soft tissue, adherent, top dose 20 µM) | 0.977 | > 20 |
| TE-12 (oesophagus, suspension, top dose 20 µM) | 0.976 | > 20 |
| ALL-PO (lymphoblastic leukaemia, suspension, top dose 20 µM) | 0.919 | > 20 |
| KS-1 (glioma, adherent, top dose 20 µM) | 0.819 | 15.2 |
| SK-PN-DW (Ewing sarcoma, adherent, top dose 20 µM) | 0.971 | > 20 |
| NCI-H841 (small cell lung carcinoma, adherent, top dose 20 µM) | 0.959 | > 20 |
